Several values for one entry are separate records, joined by “and”; a condition that tells them apart may be missing. Identical values can stand only once. In all, about 200,000 compounds went through this assay and about 4,500 (2.2%) were called active. This list was built around the results that the source calls inconclusive (neither active nor inactive); the mix of calls is not that of the screen. The call rests on the fitted dose curve; in most records, active means well fitted inhibition curve with a large enough effect; inconclusive means small, poorly fitted or top-dose-only effect, or effect the other way; inactive means flat fitted curve, though single readings scatter. A potency beside an inconclusive call is a rough fit, not a confirmed value.
The compounds below were run against Cruzipain (Trypanosoma cruzi) (UniProt P25779) (assay: qHTS Assay for Promiscuous and Specific Inhibitors of Cruzain (without detergent)). Conditions: purified cruzain, Z-FR-AMC fluorescence, no detergent.
Sequence of UniProt P25779 (P25779 whole entry, looked up): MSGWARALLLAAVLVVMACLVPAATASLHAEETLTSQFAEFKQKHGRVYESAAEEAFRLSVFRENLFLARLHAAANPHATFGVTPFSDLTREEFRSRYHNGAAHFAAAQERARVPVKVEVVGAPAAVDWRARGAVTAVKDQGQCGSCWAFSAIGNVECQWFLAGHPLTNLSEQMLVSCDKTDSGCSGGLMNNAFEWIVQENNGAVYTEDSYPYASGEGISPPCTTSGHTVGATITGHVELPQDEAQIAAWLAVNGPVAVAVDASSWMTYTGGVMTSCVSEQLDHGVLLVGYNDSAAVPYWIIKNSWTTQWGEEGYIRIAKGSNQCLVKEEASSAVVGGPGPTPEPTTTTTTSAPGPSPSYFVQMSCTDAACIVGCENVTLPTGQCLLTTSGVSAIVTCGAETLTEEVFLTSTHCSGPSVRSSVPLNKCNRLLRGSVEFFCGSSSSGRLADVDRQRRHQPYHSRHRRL
Summary of the method: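 Detergent-free condition (0.00005% Triton X-100) in acetate buffer pH 5.5 with DTT. 1.5 nM enzyme and compound were pre-mixed 15 min, then 2 uM Z-FR-AMC substrate added; reaction progress from fluorescence change between first and third reads (60 s).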
Further: nearly all actives have a fitted effect of over 40% in size.
Potency means the concentration at half of the fitted maximal effect; tags describe the fitted curve by direction and shape.
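Wherever max response, negative = inhibition is given: plate controls were enzyme without inhibitor for no effect and buffer without enzyme for full effect.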

SMILES | Potency | max response, negative = inhibition
COc1cc(C(=O)N/N=C/c2sc(=O)n(-c3ccccc3)c2Cl)cc(OC)c1OC | inconclusive: 39.8 µM [activator, single point] | –
CC(C)(C)c1ccc(OCC(=O)NCC2(N3CCOCC3)CCCCC2)cc1 | – | inactive: 16.3%
O=C(Cn1cnc2c(cnn2-c2ccc(Cl)cc2)c1=O)NCCc1ccccc1 | active: 25.1 µM | –
C[n+]1cc2c3c(ccc2c2ccc4cc5c(cc4c21)OCO5)OCO3 | inconclusive: 2.51 µM [inhibitor, full curve] and inconclusive: 39.8 µM [inhibitor, single point] | –
O=C(Nc1ccccc1C(=O)NC(Cc1ccccc1)C(=O)NC1CCCCCC1)c1ccccc1 (stereo unspecified) | inconclusive: 39.8 µM [inhibitor, single point] | –
C=CCNc1sc(C(=O)c2ccccc2)c(N)c1C#N | – | inactive: -6.96%
CC(C)(C)c1ccc(/C=C2\SC(=O)N(CCNC(=O)c3cccc(S(=O)(=O)N4CCOCC4)c3)C2=O)cc1 | inconclusive: 10 µM [activator, partial curve] | –
O=C(CN1C(=O)C2(SCC(=O)N2c2cccc(Cl)c2)c2ccccc21)NCc1ccccc1 (stereo unspecified) | – | inactive: -6.7%
COc1ccc(C2(NC(C)=O)CCN(C(=O)CCC(=O)O)CC2)cc1 | inconclusive: 0.0316 µM [inhibitor, full curve, poor fit] | –
COc1ccc(C2c3c(ccc4ccccc34)Oc3ncn4nc(CO/N=C/c5ccccc5)nc4c32)cc1 (stereo unspecified) | active: 3.16 µM | –
CCOC(=O)c1c(C)n(Cc2ccccc2)c2ccc(OCC(O)Cn3nc(C)cc3C)cc12 (stereo unspecified) | inconclusive: 39.8 µM [activator, single point] | –
COc1ccc2c(c1)OCC(Cc1ccc(O)c(OC)c1)C2=O (stereo unspecified) | – | inactive: 8.35%
CC1=C(C(=O)OCc2ccccc2)C(c2cccc([N+](=O)[O-])c2)NC(=O)N1CCCCCC(=O)O (stereo unspecified) | inconclusive: 39.8 µM [activator, single point] | –
CCc1ccc(OCC(=O)NC(=S)Nc2ccc(F)cc2)c(Br)c1 | inconclusive: 39.8 µM [inhibitor, single point] | –
CCCC(=O)Nc1nc(C)c(-c2csc(Nc3cc(OC)ccc3OC)n2)s1 | – | inactive: -20.9%
Cc1ccc(NC(=O)c2ccc(NCc3ccco3)c([N+](=O)[O-])c2)cc1Cl | inconclusive: 39.8 µM [inhibitor, single point] | –
COC(=O)c1ccc(NC(=O)CCc2c(C)nc3c(c(C)nn3C(C)(C)C)c2C)cc1 | inconclusive: 39.8 µM [activator, single point] | –
Cc1nc(SCC(=O)Nc2nsc(-c3ccc(C(C)(C)C)cc3)n2)c2c3c(sc2n1)CCCC3 | inconclusive: 5.01 µM [inhibitor, single point] | –
COc1ccc(N2CCN(S(=O)(=O)CCNC(=O)Cc3ccc(OC)c(OC)c3)CC2)cc1 | – | inactive: 13.1%
O=C(CSc1nc2ncccc2o1)Nc1cccc(C(F)(F)F)c1 | – | inactive: -0.671%
CCS(=O)(=O)c1oc(-c2ccc(F)cc2)nc1S(=O)(=O)c1ccccc1 | – | inactive: -11.6%

SMILES | Potency | max response, negative = inhibition
CCOc1cc(CNC(=O)c2ccc3nc(C(C)C)oc3c2)cc(OCC)c1OCC | inconclusive: 31.6 µM [activator, single point] | –
Cc1ccccc1OCC(=O)NCCc1nc2ccccc2[nH]1 | active: 3.16 µM | –
Cc1ccc(S(=O)(=O)N2CCN(C(=O)c3c(C)nn(-c4ccccc4)c3Cl)CC2)cc1 | inconclusive: 25.1 µM [activator, single point] | –
Cc1ccc(C)c(N2CCN(C(=O)c3cc4c(=O)oc5ccccc5c4s3)CC2)c1 | – | inactive: -3.79%
COc1ccc(OC)c(CNC(=O)c2ccc3c(c2)c(C)c(C)n3C)c1 | inconclusive: 25.1 µM [inhibitor, single point] | –
COc1ccc(NC(=O)c2oc3ccccc3c2NC(=O)Cc2coc3ccc(C)cc23)cc1 | active: 25.1 µM | –
Cc1ccc2nc(-c3ccc(C)o3)c(Nc3ccc4c(c3)OCCO4)n2c1 | inconclusive: 25.1 µM [inhibitor, partial curve] | –
CC1(C)CC(=O)C(=Cc2cn(CCC#N)nc2-c2ccc(Cl)cc2)C(=O)C1 | inconclusive: 31.6 µM [activator, single point] | –
CCOc1ccc(NC(=O)CCCOc2cc(=O)n(C)c3ccccc23)cc1 | inconclusive: 39.8 µM [activator, single point] | –
COc1ccc(N2CCN(C(=O)CN3C(=O)COc4ccc(S(=O)(=O)N5CCC(C)CC5)cc43)CC2)cc1 | inconclusive: 39.8 µM [activator, single point] | –
Cc1c(C(=O)N(C)C)sc2c1c(=O)n(-c1ccc(Cl)c(Cl)c1)c(=O)n2CC(=O)N1CCCCC1C (stereo unspecified) | inconclusive: 31.6 µM [activator, single point] | –
CCCCCCC1CC(CCC(=O)Nc2ccc([N+](=O)[O-])cc2)C(=O)O1 (stereo unspecified) | inconclusive: 31.6 µM [inhibitor, single point] | –
CC(C)OC(=O)Cn1cnc2ccc(Br)cc2c1=O | inconclusive: 0.126 µM [inhibitor, single point] | –
CCN(CC)c1nc(C#N)cc(-c2ccc(OC)cc2)n1 | – | inactive: -14.2%
COc1ccc(CCNC(=O)C(=O)NCc2ccc(C(C)C)cc2)cc1OC | inconclusive: 39.8 µM [activator, single point] | –
COc1ccc(-n2nc3cc(C)c(NC(=O)Cc4ccc(Cl)cc4)cc3n2)cc1 | – | inactive: -6.32%
C=CCN1C(=O)/C(=C/c2cc(C)n(-c3cccnc3)c2C)C(=O)NC1=S | inconclusive: 31.6 µM [activator, single point] | –
Cc1ccc(NC(=S)Nc2nc(CC(=O)Nc3ccccc3)cs2)cc1 | inconclusive: 31.6 µM [inhibitor, single point] | –
O=C(CS(=O)(=O)Cc1ccccc1)Nc1ncccn1 | – | inactive: 10.7%
Cc1ccc(C(=O)ON=C2CCN(c3ccc([N+](=O)[O-])cc3)CC2)cc1 | active: 31.6 µM | –

— PubChem BioAssay AID1476 (National Center for Advancing Translational Sciences (NCATS), 2009)
